The campaign covered roughly 48,000 compounds. About 550 (1.1%) were called active. Another 4% or so got no clear call; they are omitted. No stated cut-off is given here; in the data, active means potency below about 15 µM; inconclusive means mostly about 16 µM to 33 µM; inactive means weaker than that. The list shows a part of the results.
Target: Lysosomal acid glucosylceramidase (Homo sapiens) (UniProt P04062)
Assay: Glucocerebrosidase;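 further: the screen sought inhibitors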
Conditions: purified enzyme, resorufin glucoside fluorescence (screen aimed at inhibitors), 20 min; series mostly up to 77 µM
In short: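 Compounds titrated against 0.2 nM normal enzyme, 30 uM resorufin beta-D-glucopyranoside substrate, citrate/phosphate buffer with taurocholate and tween-20, pH 5.9. Reaction ran 20 min at room temperature; fluorescence (Ex 548/Em 600) gave AC50.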
Potency means the concentration at half of the fitted maximal effect.

Sequence of UniProt P04062 (P04062 whole entry, looked up): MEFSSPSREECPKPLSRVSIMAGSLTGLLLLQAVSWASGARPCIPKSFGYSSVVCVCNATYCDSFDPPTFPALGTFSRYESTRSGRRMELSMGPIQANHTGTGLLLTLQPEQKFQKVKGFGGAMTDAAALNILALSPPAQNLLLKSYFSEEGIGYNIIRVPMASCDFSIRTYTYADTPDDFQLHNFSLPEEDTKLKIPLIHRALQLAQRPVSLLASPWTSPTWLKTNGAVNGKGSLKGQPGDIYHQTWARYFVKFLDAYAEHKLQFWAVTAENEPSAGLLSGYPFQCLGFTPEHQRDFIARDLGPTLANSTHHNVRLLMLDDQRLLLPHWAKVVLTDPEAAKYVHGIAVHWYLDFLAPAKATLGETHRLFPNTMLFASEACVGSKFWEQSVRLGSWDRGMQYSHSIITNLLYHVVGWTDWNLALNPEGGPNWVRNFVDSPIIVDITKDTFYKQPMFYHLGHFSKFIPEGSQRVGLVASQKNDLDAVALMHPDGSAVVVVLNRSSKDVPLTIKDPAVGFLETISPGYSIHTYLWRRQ

Q: `CC(C)c1nc2ccccc2c2nnc(SCC(=O)NCc3ccco3)n12` was tested. Which Potency did it give?
A: inactive: > 76.9 µM

Q: With `Brc1cccc(-c2nnc3n2CCCCC3)c1` as the molecule, how does the Potency read?
A: inactive: > 76.9 µM

Q: With `CCOC(=O)C1CCCN(c2nc3ccccc3nc2C(C#N)C(=O)OCC)C1` (stereo unspecified) as the molecule, how does the Potency read?
A: inactive: > 76.9 µM

Q: Which Potency does the source give for `CC(Sc1nnc(-c2ccc(O)cc2)o1)C(=O)Nc1cccc2ccccc12` (stereo unspecified) here?
A: inactive: > 76.9 µM

Q: With `O=C(CCCCn1c(=S)[nH]c2ccsc2c1=O)NCc1ccco1` as the molecule, how does the Potency read?
A: inactive

Q: Which Potency does the source give for `CC(C)CC1NC(=O)N(CC(=O)c2ccc3c(c2)OCCO3)C1=O` (stereo unspecified) here?
A: inactive: > 76.9 µM

Q: With `O=C(CN1C(=O)C2CC=CCC2C1=O)Nc1ccc(S(=O)(=O)NC2=NCCCCC2)cc1` (stereo unspecified) as the molecule, how does the Potency read?
A: inactive: > 76.9 µM

Q: `Cc1ccc(C)c(C(=O)CSc2nnnn2-c2cccnc2)c1` was tested. Which Potency did it give?
A: inactive: > 76.9 µM

Q: For `COc1cc(C2c3c(oc4ccccc4c3=O)C(=O)N2CCN2CCOCC2)cc(OC)c1OC` (stereo unspecified), which Potency is on record?
A: inactive: > 76.9 µM

Q: `COc1ccc2occ(NC(C)=O)c2c1` was tested. Which Potency did it give?
A: inactive: > 76.9 µM

Q: With `CN(C)C(=O)Cn1nc(-c2ccccc2)c2ccccc2c1=O` as the molecule, how does the Potency read?
A: inactive: > 76.9 µM

Q: Which Potency does the source give for `COCCn1c(=O)[nH]c2cc(C(=O)NCc3cccnc3)ccc2c1=O` here?
A: inactive: > 76.9 µM

Q: `CC(C)c1cc(C(=O)Nc2cc(Cl)ccc2O)no1` was tested. Which Potency did it give?
A: inactive: > 76.9 µM

Q: Which Potency does the source give for `COC(=O)Cc1[nH]nc2c1C1(C(=O)N(Cc3ccc(Cl)cc3)c3ccccc31)C(C#N)=C(N)O2` (stereo unspecified) here?
A: inactive: > 76.9 µM

Q: `CCCCOC(=O)n1c(=O)oc2cc(S(=O)(=O)N3CCCCC3)ccc21` was tested. Which Potency did it give?
A: inactive: > 76.9 µM

Q: How did the Potency turn out when `O=C1CN(C(=O)c2ccccc2F)c2ccccc2N1` was run?
A: inactive: > 76.9 µM

Q: `COc1ccc(CCNC(=O)Cn2cnc3c(nnn3Cc3ccccc3F)c2=O)cc1OC` was tested. Which Potency did it give?
A: inactive: > 76.9 µM

Q: How did the Potency turn out when `Fc1ccc(-c2nnc(NC3=NCCCCC3)o2)cc1` was run?
A: inactive: > 76.9 µM

Q: How did the Potency turn out when `O=C(O)C1C(c2ccccc2)C(C(=O)OCCCO)C1c1ccccc1` (stereo unspecified) was run?
A: inactive: > 76.9 µM

Q: With `Cc1cc(-n2c(C)cc(C(=O)CSc3nnc4sc5ccccc5n34)c2C)no1` as the molecule, how does the Potency read?
A: inactive: > 76.9 µM

Q: Which Potency does the source give for `CCOC(=O)CCCCC(=O)c1[nH]c(=O)[nH]c1CSc1nc(-c2ccccc2)c(C#N)c(=O)[nH]1` here?
A: inactive: > 76.9 µM

Q: `Cc1cc(C)n(-c2cc(-c3ccccc3)nc(C)n2)n1` was tested. Which Potency did it give?
A: inactive: > 76.9 µM

Q: With `O=C(CCSCCc1ccncc1)NCCCN1CCOCC1` as the molecule, how does the Potency read?
A: inactive: > 76.9 µM

Q: With `COc1cccc(CNC(=O)CCS(=O)(=O)c2cccc3nonc23)c1` as the molecule, how does the Potency read?
A: inactive: > 76.9 µM

Q: With `Cc1cccc(N(CC(=O)NC2CCCCC2)C(=O)CCC(=O)Nc2ccccn2)c1` as the molecule, how does the Potency read?
A: inactive: > 76.9 µM

Q: How did the Potency turn out when `O=C(O)c1cnn2c1NC(c1ccc(F)cc1)CC2C(F)(F)F` (stereo unspecified) was run?
A: inactive: > 76.9 µM

Q: For `CC(C)OCCCNC(=O)Cn1nc(-c2ccccc2)ccc1=O`, which Potency is on record?
A: inactive: > 76.9 µM

Q: For `CCC(CC)C(=O)Nc1cc(C)cc(C)c1`, which Potency is on record?
A: inactive: > 76.9 µM

Q: Which Potency does the source give for `COc1ccc(NC(=O)C(C)N(c2ccc(C)cc2)S(C)(=O)=O)c(OC)c1` (stereo unspecified) here?
A: inactive: > 76.9 µM

Q: With `COc1ccc(NC(=O)CCCn2c(=O)[nH]c3ccccc3c2=O)cc1` as the molecule, how does the Potency read?
A: inactive: > 76.9 µM

Q: `OCn1ncn(-c2ccccc2)c1=S` was tested. Which Potency did it give?
A: inactive: > 76.9 µM

Q: `COc1ccc(CN2C(=O)NC3(CCCCCC3)C2=O)cc1F` was tested. Which Potency did it give?
A: inactive: > 76.9 µM

Q: `CCN(CC)CCN(Cc1cc2cc3c(cc2[nH]c1=O)OCCO3)C(=O)NC1CCCCC1` was tested. Which Potency did it give?
A: inactive: > 76.9 µM

Q: Which Potency does the source give for `Cc1ccc(S(=O)(=O)Cn2cnnn2)cc1` here?
A: inactive: > 76.9 µM

Q: Which Potency does the source give for `Cc1ccc2nc(Nc3nc(=O)c4ccccc4n3C)nc(C)c2c1` here?
A: inactive: > 76.9 µM

Q: Which Potency does the source give for `O=C(CN1CCC(NC(=O)c2ccccc2)CC1)NCc1ccccc1F` here?
A: inactive: > 76.9 µM

Q: `Cc1n[nH]c(C)c1S(=O)(=O)N1CCCC(C(=O)N2CCc3ccccc32)C1` (stereo unspecified) was tested. Which Potency did it give?
A: inactive: > 76.9 µM

Q: `N#C/C(=C1\CCCN1)c1nc(-c2ccccc2)cs1` was tested. Which Potency did it give?
A: inactive

Q: How did the Potency turn out when `CCOC(=O)c1ccc(N2C(=O)C(C)=C(C)C2=O)cc1` was run?
A: inactive: > 76.9 µM

Q: With `O=C(Nc1ccc(Cl)cc1)N(Cc1cccnc1)Cc1ccco1` as the molecule, how does the Potency read?
A: inactive: > 76.9 µM

Q: `CCOC(=O)c1cc2occc2n1CC(=O)N1CCCc2ccccc21` was tested. Which Potency did it give?
A: inactive: > 76.9 µM

Q: How did the Potency turn out when `CCOC(=O)C1=C(N)n2c(s/c(=C\c3cccs3)c2=O)=C(C(=O)OCC)C1c1cccs1` (stereo unspecified) was run?
A: inactive: > 76.9 µM

Q: With `CCCOc1ccc(C2/C(=C(\O)c3c(C)[nH]c(C(=O)OC)c3C)C(=O)C(=O)N2CCN(C)C)cc1` (stereo unspecified) as the molecule, how does the Potency read?
A: inactive: > 76.9 µM

Q: How did the Potency turn out when `O=C(CCCn1c(=S)[nH]c2cc3c(cc2c1=O)OCO3)N1CCN(c2ccc(Cl)cc2)CC1` was run?
A: inactive

Q: With `Cc1nc(NCc2ccccn2)c2ccccc2n1` as the molecule, how does the Potency read?
A: inactive: > 76.9 µM

Q: `O=C(O)c1c(F)c(F)cc2ccccc12` was tested. Which Potency did it give?
A: inactive: > 76.9 µM

Q: `O=C(C1CCCO1)N1CCc2ccccc21` (stereo unspecified) was tested. Which Potency did it give?
A: inactive: > 76.9 µM

Q: `COc1ccccc1N1CCN(C(=O)c2ccc(S(=O)(=O)N3CCCC3)cc2)CC1` was tested. Which Potency did it give?
A: inactive: > 76.9 µM

Q: For `Cn1c(SCC(=O)NCCN2C(=O)CSC2=O)nc2ccccc2c1=O`, which Potency is on record?
A: inactive: > 76.9 µM

Q: With `CCN(CC)CCOC(=O)c1cccc(OC)c1` as the molecule, how does the Potency read?
A: inactive: > 76.9 µM

Q: How did the Potency turn out when `O=C(COC(=O)c1cccc(S(=O)(=O)N2CCc3ccccc32)c1)NC1CCS(=O)(=O)C1` (stereo unspecified) was run?
A: inactive: > 76.9 µM

Q: Which Potency does the source give for `Clc1cccc(Cl)c1Cn1nnc(-c2cccs2)n1` here?
A: inactive: > 76.9 µM

Q: With `COc1ccccc1C1C(C(N)=O)=C(C)Nc2ncnn21` (stereo unspecified) as the molecule, how does the Potency read?
A: inactive: > 76.9 µM

Q: Which Potency does the source give for `CC(=O)c1c(C)nc(C)nc1NC(=O)Cc1ccccc1` here?
A: inactive: > 76.9 µM

Q: With `CCn1c(=O)cc(SCC(=O)N2CCC(C)CC2)c2ccccc21` as the molecule, how does the Potency read?
A: inactive: > 76.9 µM

Q: How did the Potency turn out when `CC(C)C1Oc2ccccc2N(CC(=O)NCCCN2C(C)CCCC2C)C1=O` (stereo unspecified) was run?
A: inactive: > 76.9 µM

Q: Which Potency does the source give for `COc1ccc(N2CC(O)=C(c3nc4ccccc4s3)C2=N)cc1` here?
A: inactive: > 76.9 µM

Q: Which Potency does the source give for `CCOc1ccc(-n2cc(C(=O)Nc3cccc(C)n3)c3cc(OC)c(OC)cc3c2=O)cc1` here?
A: inactive: > 76.9 µM

Q: `COc1cccc(-c2nc(-c3ccc(NC(=O)c4cccnc4)cc3)no2)c1` was tested. Which Potency did it give?
A: inactive: > 76.9 µM

Q: How did the Potency turn out when `CC1(C)CC(=O)C(C2(O)C(=O)N(Cc3ccccc3)c3ccccc32)CO1` (stereo unspecified) was run?
A: inactive: > 76.9 µM

Q: `C/C(N)=C(/C#N)C(=O)COC(=O)c1cc(C)n(-c2ccc(F)cc2)c1C` was tested. Which Potency did it give?
A: inactive: > 76.9 µM

Q: For `CC1(C)CC(=O)C=C(NCc2ccco2)C1`, which Potency is on record?
A: inactive: > 76.9 µM

Q: `O=C(O)CCc1ccc(-c2ccccc2)n1-c1cccc(O)c1` was tested. Which Potency did it give?
A: inactive: > 76.9 µM

Q: `O=C1OCCC1S(=O)(=O)c1ccc2ccccc2c1` (stereo unspecified) was tested. Which Potency did it give?
A: inactive: > 76.9 µM

Q: Which Potency does the source give for `COC(=O)c1[nH]c2cc(C)ccc2c1NC(=O)CN1CCCc2ccccc21` here?
A: inactive: > 76.9 µM

Q: How did the Potency turn out when `COc1ccc(S(=O)(=O)N(Cc2ccc(OC)c(OC)c2)Cc2ccco2)cc1` was run?
A: inactive: > 76.9 µM

Q: Which Potency does the source give for `Cc1cc(NC(=O)Nc2cccs2)no1` here?
A: inactive: > 76.9 µM

Q: `CCOC(=O)C1CCN(c2cc(=O)n(C3CCCCC3)c(=O)[nH]2)CC1` was tested. Which Potency did it give?
A: inactive: > 76.9 µM

Q: With `Cc1ccc2nc3c(cc(C(=O)NCC4CCCO4)n3C)c(=O)n2c1` (stereo unspecified) as the molecule, how does the Potency read?
A: inactive: > 76.9 µM

Q: `Cc1ccc(-c2nc3ccccc3[nH]2)cc1NC(=O)c1ccco1` was tested. Which Potency did it give?
A: inactive: > 76.9 µM

Q: How did the Potency turn out when `COc1ccc(OCc2nnc(SCC(=O)NCc3ccco3)o2)cc1` was run?
A: inactive: > 76.9 µM

Q: How did the Potency turn out when `CCCCN(C)CCCNC(=O)c1cccc(N2CCCC2=O)c1` was run?
A: inactive: > 76.9 µM

Q: For `Cc1ccc(S(=O)(=O)N2CCN(CCO)CC2)cc1-c1nnc2c3ccccc3c(C)nn12`, which Potency is on record?
A: inactive: > 76.9 µM

Q: With `C#CC(C)(C)NC(=O)c1ccccc1OC` as the molecule, how does the Potency read?
A: inactive: > 76.9 µM

Q: With `CCOc1ccc(S(=O)(=O)Nc2ccccc2C(=O)Nc2ccccc2N2CCOCC2)cc1` as the molecule, how does the Potency read?
A: inactive: > 76.9 µM

Q: For `Cc1ccc(S(=O)(=O)N2CCC(C(=O)N[C@@H](C)C(=O)NCC3CCCO3)CC2)cc1` (stereo partly specified), which Potency is on record?
A: inactive: > 76.9 µM

Q: `O=C(CN1C(=O)C2C3C=CC(C3)C2C1=O)NCCN1CCCc2ccccc21` (stereo unspecified) was tested. Which Potency did it give?
A: inactive: > 76.9 µM

Q: For `CCOC(=O)c1[nH]c2ccc(OC)cc2c1N=CN(C)C`, which Potency is on record?
A: inactive: > 76.9 µM

Q: With `O=C(CSc1nn(-c2ccccc2)c(=S)s1)Nn1cnnc1` as the molecule, how does the Potency read?
A: inactive: > 76.9 µM

Q: `CN(c1ccc(C(=O)N2CCc3ccccc3C2)cc1)S(C)(=O)=O` was tested. Which Potency did it give?
A: inactive: > 76.9 µM

Q: `O=S(=O)(NCc1ccco1)c1cccc2cccnc12` was tested. Which Potency did it give?
A: inactive: > 76.9 µM

Q: With `CC(=O)N1CSCC1C(=O)O` (stereo unspecified) as the molecule, how does the Potency read?
A: inactive: > 76.9 µM

Q: How did the Potency turn out when `CC1CCCC(C)N1C(=O)CSc1nnnn1Cc1ccccc1` (stereo unspecified) was run?
A: inactive: > 76.9 µM

Q: With `O=C(C1CCN(S(=O)(=O)c2ccc3ccccc3c2)CC1)N1CCN(c2ncccn2)CC1` as the molecule, how does the Potency read?
A: inactive: > 76.9 µM

Q: How did the Potency turn out when `COc1ccc(Nc2cc(C)nc(N3CCOCC3)n2)cc1` was run?
A: active: 10.7 µM

Q: With `Cc1ccc2c(c1)-c1ccccc1S(=O)(=O)N2` as the molecule, how does the Potency read?
A: inactive: > 76.9 µM

Q: With `CCOC(=O)N1CCN(C(=O)CCc2nc3sc4c(c3c(=O)[nH]2)CCCC4)CC1` as the molecule, how does the Potency read?
A: inactive: > 76.9 µM

Q: `COC(=O)C1=C(N)Oc2cc(C)oc(=O)c2C1c1cccnc1` (stereo unspecified) was tested. Which Potency did it give?
A: inactive: > 76.9 µM

Q: Which Potency does the source give for `O=C(CSc1nnc(NC2CCCCC2)s1)NC1CCS(=O)(=O)C1` (stereo unspecified) here?
A: inactive: > 76.9 µM

Q: How did the Potency turn out when `COc1ccc(NS(=O)(=O)c2cccc3cccnc23)cc1` was run?
A: inactive: > 76.9 µM

Q: For `CC1=C(C(=O)Nc2ccccc2)C(c2cccs2)n2nnnc2N1` (stereo unspecified), which Potency is on record?
A: inactive: > 76.9 µM
